PMC4336329 (PLoS ONE, 2015)
Screen size: about 310,000 compounds; about 14,000 (4.5%) showed an effect of 50% or more. Effects have a minus sign here. The list shows a part of the results.

Each compound was assayed against human ether-à-go-go-related gene (hERG) potassium channel (human, UniProt Q12809) (assay: primary screen, population patch clamp on CHO cells stably expressing hERG).
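Further: peak tail current of the secondary pulse compared with the same well before compound.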

Chain of human ether-à-go-go-related gene (hERG) potassium channel (Q12809 whole entry, looked up): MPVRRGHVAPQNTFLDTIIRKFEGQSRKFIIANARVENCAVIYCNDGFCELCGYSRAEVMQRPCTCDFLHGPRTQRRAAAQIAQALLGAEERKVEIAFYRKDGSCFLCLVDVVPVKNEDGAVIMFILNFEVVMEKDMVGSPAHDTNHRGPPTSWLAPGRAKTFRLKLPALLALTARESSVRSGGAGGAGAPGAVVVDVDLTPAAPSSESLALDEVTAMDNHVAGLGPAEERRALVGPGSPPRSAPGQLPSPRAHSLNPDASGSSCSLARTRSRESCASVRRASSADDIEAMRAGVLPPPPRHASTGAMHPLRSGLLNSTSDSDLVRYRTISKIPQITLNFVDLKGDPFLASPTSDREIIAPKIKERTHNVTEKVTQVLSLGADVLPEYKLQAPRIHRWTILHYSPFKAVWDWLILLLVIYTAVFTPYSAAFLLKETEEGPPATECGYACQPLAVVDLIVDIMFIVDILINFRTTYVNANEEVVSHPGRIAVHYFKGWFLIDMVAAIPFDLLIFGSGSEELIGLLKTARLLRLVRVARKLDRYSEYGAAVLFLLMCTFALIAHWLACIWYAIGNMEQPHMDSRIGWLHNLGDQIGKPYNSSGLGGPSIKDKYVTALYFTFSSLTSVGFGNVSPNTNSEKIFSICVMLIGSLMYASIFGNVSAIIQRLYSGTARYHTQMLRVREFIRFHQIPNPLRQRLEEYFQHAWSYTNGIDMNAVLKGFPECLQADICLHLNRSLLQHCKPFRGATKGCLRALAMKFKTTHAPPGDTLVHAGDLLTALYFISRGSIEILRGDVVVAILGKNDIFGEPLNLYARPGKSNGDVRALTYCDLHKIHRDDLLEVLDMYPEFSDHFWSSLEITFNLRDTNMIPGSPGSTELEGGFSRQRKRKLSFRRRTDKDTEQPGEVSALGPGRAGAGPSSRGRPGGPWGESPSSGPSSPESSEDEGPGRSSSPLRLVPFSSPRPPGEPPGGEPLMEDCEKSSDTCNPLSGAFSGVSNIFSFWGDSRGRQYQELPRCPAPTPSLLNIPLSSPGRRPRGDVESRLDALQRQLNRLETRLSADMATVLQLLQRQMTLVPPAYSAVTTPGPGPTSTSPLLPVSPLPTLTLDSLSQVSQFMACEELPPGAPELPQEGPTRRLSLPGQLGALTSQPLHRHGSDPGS

Which “hERG current change (%, negative = inhibition) at 10uM” value does the source give for `Cc1c(C)n2c(SCC(=O)NCc3ccc4c(c3)OCO4)nnc2[nH]c1=O` here?
The value was 7.88%.

Which “hERG current change (%, negative = inhibition) at 10uM” value does the source give for `N/C(COc1ccccc1)=N\NS(=O)(=O)c1ccccc1` here?
Its value is 10.6%.

`NC1=NC(=O)/C(=C\c2ccsc2)S1` was tested. Which “hERG current change (%, negative = inhibition) at 10uM” value did it give?
Its value is 9.97%.

With `CCOC(=O)N1CCN(C(=O)CSCC(=O)Nc2nc(-c3cccs3)cs2)CC1` as the compound, how does the “hERG current change (%, negative = inhibition) at 10uM” value read?
The value was -31.4%.

How did the “hERG current change (%, negative = inhibition) at 10uM” value turn out when `COc1ccc(C(=O)c2cc([N+](=O)[O-])ccc2N2CCN(C)CC2)cc1` was run?
Its value is -58.2%.

How did the “hERG current change (%, negative = inhibition) at 10uM” value turn out when `COc1cc(C(=O)OCC(=O)NC(=O)C2CCCCC2)ccc1OC(F)F` was run?
Its value is 15.8%.

With `Cc1cc(C)c(C#N)c(SC(F)F)n1` as the compound, how does the “hERG current change (%, negative = inhibition) at 10uM” value read?
Its value is -2.52%.

For `O=C(NCc1ccc(F)cc1)C1CCC(CNc2c(N3CCCCC3)c(=O)c2=O)CC1` (centres unmarked), which “hERG current change (%, negative = inhibition) at 10uM” value is on record?
The value was 17%.

With `NS(=O)(=O)c1ccc(CNC(=O)CCSCCC(=O)NCc2ccc(S(N)(=O)=O)cc2)cc1` as the compound, how does the “hERG current change (%, negative = inhibition) at 10uM” value read?
Its value is 12.5%.

`CC(=O)O[C@H]1C(=O)[C@]2(C)[C@H]([C@H](OC(=O)c3ccccc3)[C@]3(O)C[C@H](OC(=O)[C@H](O)[C@@H](NC(=O)c4ccccc4)c4ccccc4)C(C)=C1C3(C)C)[C@]1(OC(C)=O)CO[C@@H]1C[C@@H]2O` was tested. Which “hERG current change (%, negative = inhibition) at 10uM” value did it give?
Its value is -38.8%.

For `COc1cccc(NC(=O)c2ccc(-n3cnnn3)cc2)c1`, which “hERG current change (%, negative = inhibition) at 10uM” value is on record?
Its value is 5.31%.

How did the “hERG current change (%, negative = inhibition) at 10uM” value turn out when `Cc1cccn2c(NC(=O)c3cccs3)c(-c3ccccc3)nc12` was run?
The value was -3.77%.

Which “hERG current change (%, negative = inhibition) at 10uM” value does the source give for `CN(C)CCCOc1nn(Cc2ccccc2)c2ccccc12.Cl` here?
Its value is -39.5%.

Which “hERG current change (%, negative = inhibition) at 10uM” value does the source give for `COc1ccc(NC(=S)Nc2ccccc2)c(OC)c1` here?
The value was 12.4%.

How did the “hERG current change (%, negative = inhibition) at 10uM” value turn out when `COc1ccc(C(=O)Nc2cccc(/C=C/c3nc4ccccc4c(=O)[nH]3)c2)cc1` was run?
The value was -28.2%.

How did the “hERG current change (%, negative = inhibition) at 10uM” value turn out when `O=C(NC1CCCC1)C1CCC(=O)N1C1CCCC1` (centres unmarked) was run?
Its value is 11.9%.

How did the “hERG current change (%, negative = inhibition) at 10uM” value turn out when `CC(C)CC(NC(N)=O)C(=O)Nc1ccc2c(c1)OCO2` (centres unmarked) was run?
Its value is 25%.

With `CSc1nc(Nc2ccc(Cl)cc2)c(C#N)c(=O)[nH]1` as the compound, how does the “hERG current change (%, negative = inhibition) at 10uM” value read?
The value was 18.3%.

`COc1ccc(S(N)(=O)=O)cc1C(=O)OCCCOc1ccc(F)cc1` was tested. Which “hERG current change (%, negative = inhibition) at 10uM” value did it give?
The value was -37.7%.

With `Cc1ccc2c(c1)C1(C)C(C(C)(C)N2C=O)C1(Cl)Cl` (centres unmarked) as the compound, how does the “hERG current change (%, negative = inhibition) at 10uM” value read?
Its value is 6.91%.

Which “hERG current change (%, negative = inhibition) at 10uM” value does the source give for `CCCCC(c1nnnn1C1CCCC1)N1CCN(C2CCCCC2)CC1` (centres unmarked) here?
Its value is -69.8%.

Which “hERG current change (%, negative = inhibition) at 10uM” value does the source give for `CCn1nc(NC(=O)c2cccnc2)c2cc3cccc(C)c3nc21` here?
Its value is 2.93%.

`Cn1cccc1-c1cc(C(=O)N/N=C/c2ccc([N+](=O)[O-])cc2)[nH]n1` was tested. Which “hERG current change (%, negative = inhibition) at 10uM” value did it give?
The value was -24.2%.

`CCCCC(=O)Nc1ccccc1C(=O)OCC(=O)c1ccc2c(c1)OCCO2` was tested. Which “hERG current change (%, negative = inhibition) at 10uM” value did it give?
The value was -3.68%.

For `Nc1nc2c(s1)C(=O)CC(c1ccccc1)C2` (centres unmarked), which “hERG current change (%, negative = inhibition) at 10uM” value is on record?
The value was 15.2%.

How did the “hERG current change (%, negative = inhibition) at 10uM” value turn out when `Cc1cc(C(=O)N/N=C/c2cccnc2)n[nH]1` was run?
Its value is 11%.

`O=C(NCCCNC(=O)c1c(Cl)cccc1Cl)c1c(Cl)cccc1Cl` was tested. Which “hERG current change (%, negative = inhibition) at 10uM” value did it give?
The value was 17.8%.

Which “hERG current change (%, negative = inhibition) at 10uM” value does the source give for `Cc1ccc(CNC(=O)c2ccc(Br)o2)cc1` here?
Its value is -18%.

For `Cc1nnsc1C(=O)NNc1ccc(Cl)cc1`, which “hERG current change (%, negative = inhibition) at 10uM” value is on record?
Its value is -0.343%.

`Cc1ccc2c(NC(=O)C3CC3)cccc2n1` was tested. Which “hERG current change (%, negative = inhibition) at 10uM” value did it give?
The value was 0.836%.

With `COc1ccc(NC(=S)N2CCN(S(=O)(=O)c3ccc(F)cc3)CC2)cc1OC` as the compound, how does the “hERG current change (%, negative = inhibition) at 10uM” value read?
The value was 8.04%.

How did the “hERG current change (%, negative = inhibition) at 10uM” value turn out when `CCOC(=O)N1CCC(n2c(SCC(=O)NCc3ccco3)nc3ccsc3c2=O)CC1` was run?
Its value is -45.1%.

With `CC1=CC2=NC(=O)/C(=C\c3cc(C)n(-c4ccccc4)c3C)C(=N)N2O1` as the compound, how does the “hERG current change (%, negative = inhibition) at 10uM” value read?
The value was 12.8%.

Which “hERG current change (%, negative = inhibition) at 10uM” value does the source give for `CC1CCN(CCCNC(=O)CCc2nnc3n(CCc4ccccc4)c(=O)c4ccccc4n23)CC1` here?
Its value is -76.8%.

For `O=C(NCCc1ccccc1)C1CCN(C(=O)c2ccc(F)cc2)CC1`, which “hERG current change (%, negative = inhibition) at 10uM” value is on record?
The value was -2.25%.

For `NC(=O)c1ccccc1OCC(=O)N1CCC(Cc2ccccc2)CC1`, which “hERG current change (%, negative = inhibition) at 10uM” value is on record?
The value was -21.3%.

For `COc1ccccc1C(=O)Nc1nnc(S(=O)(=O)N2CCN(c3ccc(F)cc3)CC2)s1`, which “hERG current change (%, negative = inhibition) at 10uM” value is on record?
Its value is 18.5%.

`COc1ccc(-c2nn(CCC#N)cc2C(=O)Nc2ccccn2)cc1OC` was tested. Which “hERG current change (%, negative = inhibition) at 10uM” value did it give?
Its value is 10.1%.

How did the “hERG current change (%, negative = inhibition) at 10uM” value turn out when `Cn1c(-[n+]2c(-c3ccccc3)cc(-c3ccccc3)cc2-c2ccccc2)nc2cc([N+](=O)[O-])ccc21.[I-]` was run?
The value was -12.2%.

Which “hERG current change (%, negative = inhibition) at 10uM” value does the source give for `COc1ccc(NC(=O)c2cc3ccccc3o2)cn1` here?
Its value is 8.25%.

Which “hERG current change (%, negative = inhibition) at 10uM” value does the source give for `CC(=O)c1nn(-c2ccccc2)cc1C(=O)c1ccc(C)cc1` here?
Its value is 3.72%.

Which “hERG current change (%, negative = inhibition) at 10uM” value does the source give for `COc1cc(NC(=O)c2ccnn2C)c(OC)cc1Cl` here?
Its value is 4%.

For `CSc1nc(-c2ccccc2)nc(SC)c1C(C)=O`, which “hERG current change (%, negative = inhibition) at 10uM” value is on record?
Its value is 18.5%.

Which “hERG current change (%, negative = inhibition) at 10uM” value does the source give for `CCN(CC)CCNC(=O)c1cc([N+](=O)[O-])c(N(C)C)cc1OC.Cl` here?
Its value is -12%.
